# Source: the supplement of paper PMC8728848
# Some of the results follow.
# B1: Strep tagII-anxA1 (Homo sapiens), P04083 (protein)
# chain: MAMVSEFLKQAWFIENEEQEYVQTVKSSKGGPGSAVSPYPTFNPSSDVAALHKAIMVKGVDEATIIDILTKRNNAQRQQIKAAYLQETGKPLDETLKKALTGHLEEVVLALLKTPAQFDADELRAAMKGLGTDEDTLIEILASRTNKEIRDINRVYREELKRDLAKDITSDTSGDFRNALLSLAKGDRSEDFGVNEDLADSDARALYEAGERRKGTDVNVFNTILTTRSYPQLRRVFQKYTKYSKHDMNKVLDLELKGDIEKCLTAIVKCATSKPAFFAEKLHQAMKGVGTRHKALIRIMVSRSEIDMNDIKAFYQKMYGISLCQAILDETKGDYEKILVALCGGN
# Columns and labels:
# Test in all cases: glycan array binding signal (z-score within array); higher = stronger binding
# Details in all cases: glycan notation: IUPAC condensed, linker removed
# [1] = biological target: GalNAc(a1-3)GalNAc(b1-3)Gal(a1-4)Gal(b1-4)GlcNAc
# Outline: (§1)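 The binding signal is a Z-score computed within each array and averaged over linkers. Arrays of the same protein sequence at different concentrations or buffers were also averaged together. Data originate from 3228 arrays in the Consortium for Functional Glycomics database, kept only where the protein sequence was available.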
# [2] = biological target: GalNAc(b1-3)Gal
# Outline: as §1
# [3] = biological target: GalNAc(b1-3)Gal(a1-4)Gal(b1-4)GlcNAc
# Outline: as §1
# [4] = biological target: GalNAc(b1-3)Gal(a1-4)Gal(b1-4)GlcNAc(b1-3)Gal(b1-4)Glc
# Outline: as §1
# [5] = biological target: GalNAc(b1-3)Gal(a1-6)Gal(b1-4)Glc
# Outline: as §1
# [6] = biological target: GalNAc(b1-3)GalNAc
# Outline: as §1
# [7] = biological target: GalNAc(b1-4)Gal(b1-4)Glc
# Outline: as §1
# [8] = biological target: GalNAc(b1-4)GlcNAc
# Outline: as §1
# [9] = biological target: GalNAc(b1-4)GlcNAc(b1-2)Man(a1-3)[GalNAc(b1-4)GlcNAc(b1-2)Man(a1-6)]Man(b1-4)GlcNAc(b1-4)GlcNAc
# Outline: as §1
# [10] = biological target: GalNAc(b1-4)GlcNAc6S
# Outline: as §1
# [11] = biological target: GalNAc(b1-6)GalNAc
# Outline: as §1
# [12] = biological target: GalNAc3S(b1-4)GlcNAc
# Outline: as §1
# [13] = biological target: GalNAc3S(b1-4)GlcNAc3S
# Outline: as §1
# [14] = biological target: GalNAc4S6S(b1-4)GlcNAc
# Outline: as §1
# [15] = biological target: GalNAc6S(b1-4)GlcNAc
# Outline: as §1
# [16] = biological target: Glc(a1-4)Glc
# Outline: as §1
# [17] = biological target: Glc(a1-4)Glc(a1-4)Glc(a1-4)Glc
# Outline: as §1
# [18] = biological target: Glc(a1-6)Glc(a1-6)Glc
# Outline: as §1
# [19] = biological target: Glc(a1-6)Glc(a1-6)Glc(a1-6)Glc
# Outline: as §1
# [20] = biological target: Glc(b1-4)Glc
# Outline: as §1
# [21] = biological target: Glc(b1-6)Glc
# Outline: as §1
# [22] = biological target: GlcA(b1-3)Gal
# Outline: as §1
# [23] = biological target: GlcA(b1-3)GlcNAc
# Outline: as §1
# [24] = biological target: GlcA(b1-6)Gal
# Outline: as §1
# [25] = biological target: GlcNAc(a1-3)Gal(b1-4)GlcNAc
# Outline: as §1
# [26] = biological target: GlcNAc(a1-4)Gal(b1-3)GlcNAc
# Outline: as §1
# [27] = biological target: GlcNAc(a1-4)Gal(b1-4)GalNAc
# Outline: as §1
# [28] = biological target: GlcNAc(a1-4)Gal(b1-4)GlcNAc
# Outline: as §1
# [29] = biological target: GlcNAc(a1-4)Gal(b1-4)GlcNAc(b1-3)Gal(b1-4)Glc
# Outline: as §1
# [30] = biological target: GlcNAc(a1-4)Gal(b1-4)GlcNAc(b1-3)Gal(b1-4)GlcNAc
# Outline: as §1
# [31] = biological target: GlcNAc(a1-4)Gal(b1-4)GlcNAc(b1-3)Gal(b1-4)GlcNAc(b1-3)Gal(b1-4)GlcNAc
# Outline: as §1
# [32] = biological target: GlcNAc(a1-4)Gal(b1-4)GlcNAc(b1-3)Gal(b1-4)[Fuc(a1-3)]GlcNAc(b1-3)Gal(b1-4)[Fuc(a1-3)]GlcNAc
# Outline: as §1
# [33] = biological target: GlcNAc(a1-6)Gal(b1-4)GlcNAc
# Outline: as §1
# [34] = biological target: GlcNAc(b1-2)Gal(b1-3)GalNAc
# Outline: as §1
# [35] = biological target: GlcNAc(b1-2)Man(a1-3)[GlcNAc(b1-2)Man(a1-6)]Man(b1-4)GlcNAc(b1-4)GlcNAc
# Outline: as §1
# [36] = biological target: GlcNAc(b1-2)Man(a1-3)[GlcNAc(b1-2)Man(a1-6)]Man(b1-4)GlcNAc(b1-4)[Fuc(a1-6)]GlcNAc
# Outline: as §1
# [37] = biological target: GlcNAc(b1-2)Man(a1-3)[GlcNAc(b1-4)][GlcNAc(b1-2)Man(a1-6)]Man(b1-4)GlcNAc(b1-4)GlcNAc
# Outline: as §1
binder,measurement,setting,value
B1,glycan array binding signal (z-score),[1],-0.774
same,glycan array binding signal (z-score),[2],-0.664
same,glycan array binding signal (z-score),[3],-0.061
same,glycan array binding signal (z-score),[4],0.033
same,glycan array binding signal (z-score),[5],-0.75
same,glycan array binding signal (z-score),[6],-0.066
same,glycan array binding signal (z-score),[7],1.79
same,glycan array binding signal (z-score),[8],-0.147
same,glycan array binding signal (z-score),[9],-0.011
same,glycan array binding signal (z-score),[10],-0.695
same,glycan array binding signal (z-score),[11],-0.568
same,glycan array binding signal (z-score),[12],-0.706
same,glycan array binding signal (z-score),[13],0.323
same,glycan array binding signal (z-score),[14],-0.111
same,glycan array binding signal (z-score),[15],-0.672
same,glycan array binding signal (z-score),[16],0.47
same,glycan array binding signal (z-score),[17],3.56
same,glycan array binding signal (z-score),[18],-0.383
same,glycan array binding signal (z-score),[19],1.55
same,glycan array binding signal (z-score),[20],1.5
same,glycan array binding signal (z-score),[21],0.501
same,glycan array binding signal (z-score),[22],-0.038
same,glycan array binding signal (z-score),[23],0.735
same,glycan array binding signal (z-score),[24],-0.69
same,glycan array binding signal (z-score),[25],-0.688
same,glycan array binding signal (z-score),[26],-0.359
same,glycan array binding signal (z-score),[27],2.68
same,glycan array binding signal (z-score),[28],1.29
same,glycan array binding signal (z-score),[29],-0.026
same,glycan array binding signal (z-score),[30],0.602
same,glycan array binding signal (z-score),[31],-0.656
same,glycan array binding signal (z-score),[32],1.5
same,glycan array binding signal (z-score),[33],-0.562
same,glycan array binding signal (z-score),[34],-0.637
same,glycan array binding signal (z-score),[35],-0.492
same,glycan array binding signal (z-score),[36],-0.577
same,glycan array binding signal (z-score),[37],-0.727
